# Reference: PubChem BioAssay AID2147 (National Center for Advancing Translational Sciences (NCATS), 2009)
# Where “and” joins values, the source holds several entries; their conditions need not be identical. Identical values can stand only once. The whole screen tested about 230,000 compounds, of which about 3,600 (1.6%) were called active. This list was built around the results that the source calls inconclusive (neither active nor inactive); the mix of calls is not that of the screen. Calls come from the whole dose curve; as a rule, active = well fitted inhibition curve with a large enough effect (not every such curve was filed as active); inconclusive = small, poorly fitted or top-dose-only effect, or another doubt; inactive = no such curve, though single readings can be large or run the other way. Potencies of inconclusive entries are doubtful fits and often do not repeat. Where a structure was tested more than once in an assay, its records may differ in their call.
# Biological target: Lysine-specific demethylase 4E (Homo sapiens) (UniProt B2RXH2)
# Assay: qHTS Assay for Inhibitors of Human Jumonji Domain Containing 2E (JMJD2E)
# Conditions: JMJD2E catalytic domain, FDH-coupled NADH fluorescence (FDH is formaldehyde dehydrogenase); series mostly up to 57.1 µM
# Note: nearly all actives have a fitted effect of over 50% in size.
# Potency is the fitted concentration of half-maximal effect; tags give direction and shape of the fitted curve.
# Chain of UniProt B2RXH2 (B2RXH2 whole entry, looked up, the tested form may be a part): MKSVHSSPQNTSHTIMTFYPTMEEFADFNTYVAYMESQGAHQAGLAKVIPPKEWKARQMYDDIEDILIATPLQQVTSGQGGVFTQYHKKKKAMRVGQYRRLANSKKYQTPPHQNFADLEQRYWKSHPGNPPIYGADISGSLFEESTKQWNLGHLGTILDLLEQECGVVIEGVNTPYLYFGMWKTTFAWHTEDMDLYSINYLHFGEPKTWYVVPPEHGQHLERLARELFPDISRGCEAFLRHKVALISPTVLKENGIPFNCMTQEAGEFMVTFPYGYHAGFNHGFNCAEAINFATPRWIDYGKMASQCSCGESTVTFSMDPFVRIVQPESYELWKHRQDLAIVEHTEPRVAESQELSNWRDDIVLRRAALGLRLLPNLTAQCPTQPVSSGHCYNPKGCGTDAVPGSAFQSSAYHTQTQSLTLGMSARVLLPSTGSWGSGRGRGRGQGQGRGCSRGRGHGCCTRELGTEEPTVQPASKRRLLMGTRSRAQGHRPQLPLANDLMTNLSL
row,SMILES,Potency
1,CCC(=O)Nc1ccc(N2CCN(CC)CC2)c(Cl)c1,inactive
2,Clc1cncc(N2CCNCC2)n1,"inconclusive: 39.8 µM [inhibitor, partial curve]"
3,O=c1[nH]c(=O)n(Cc2ccco2)c(O)c1/C=N/N1CCCCCC1,inactive
4,CCCCC(=O)N/N=C/c1c(O)n(-c2cccc3ccccc23)c(=O)[nH]c1=O,"inconclusive: 35.5 µM [inhibitor, single point]"
5,COc1ccc(CN2C(=O)NC(=O)/C(=C/c3cc(OC)c(OC)c(OC)c3)C2=O)cc1,inactive
6,COc1ccccc1N1CCN(C2CCN(C(=O)c3cccs3)CC2)CC1,"inconclusive: 39.8 µM [inhibitor, single point]"
7,CC(C)Oc1ccc(CC2(CCc3ccncc3)C(=O)NC(=O)NC2=O)cc1,"inconclusive: 39.8 µM [inhibitor, single point]"
8,CC(C)n1c(=O)c(C=Nc2ccc(F)cc2)c(O)n(Cc2ccco2)c1=O,inactive
9,CCCCCC1CC(CC#CCN2CCOCC2)C(=O)O1 (centres undefined),"inconclusive: 28.2 µM [inhibitor, single point]"
10,C/C(CC(=O)Nc1ccccn1)=N\NC(=O)Cc1cccc2ccccc12,"inconclusive: 14.1 µM [inhibitor, partial curve]"
11,COc1ccc2c(c1O)-c1c(OC)c(OC)cc3c1[C@H](C2)N(C)CC3,"inconclusive: 12.6 µM [inhibitor, partial curve] and inconclusive: 35.5 µM [inhibitor, partial curve]"
12,CN(CCc1ccccn1)Cc1ccc(Cl)cc1,"inconclusive: 31.6 µM [inhibitor, single point]"
13,Cc1ccc(N2C(=O)NC(=O)/C(=C\c3ccc(N4CCOCC4)cc3)C2=O)cc1,"inconclusive: 25.1 µM [inhibitor, single point]"
14,COc1cc2c(cc1O)C[C@H]1NCCc3cc4c(c-2c31)OCO4,"inconclusive: 14.1 µM [inhibitor, partial curve]"
15,CCOc1cc(/C=C2\C(=O)NC(=O)N(CCc3ccc(F)cc3)C2=O)ccc1O,"inconclusive: 31.6 µM [inhibitor, single point]"
16,CCCCn1c(O)c(/C=N/NC(=O)c2ccncc2)c(=O)[nH]c1=O,active: 8.91 µM
17,CN1c2ccccc2Oc2ccccc21,"inconclusive: 28.2 µM [inhibitor, single point]"
18,CSc1ncc(/C=C2/C(=O)NC(=O)N(C)C2=O)cn1,active: 25.1 µM
19,COC(=O)[C@@H]1C[C@@]2(O)[C@H](O)[C@H](O)[C@H](O)C[C@H]2N1Cc1cccnc1,inactive
20,Cc1ccccc1N1C(=O)NC(=O)/C(=C/c2ccc(N3CCOCC3)o2)C1=O,"inconclusive: 39.8 µM [inhibitor, single point]"
21,CC1=CC(=O)OC2CC3OC4C[C@@H](C)C5OC6CC7O[C@]8(C)C/C=C\C9OC%10CC%11OC(CC(C)CO)CC(O)[C@]%11(C)OC%10CC9OC8C[C@]7(C)O[C@]6(C)CCC5OC4C[C@]3(C)OC12 (some centres undefined),inactive
22,Cc1ccc(-c2nc3ccccc3c(=O)n2-c2ccccn2)cc1,inactive
23,CCOP(=O)(OCC)c1nc(-c2cccc3ccccc23)oc1NCc1ccccc1,"inconclusive: 35.5 µM [inhibitor, partial curve]"

row,SMILES,Potency
1,Cc1cccc(-n2c(O)c(/C=C3/C(c4ccccc4)=Nc4ccccc43)c(=O)[nH]c2=O)c1,"inconclusive: 39.8 µM [inhibitor, single point]"
2,C=CCN1CC[C@]23c4c5ccc(O)c4O[C@@H]2C(=O)CC[C@]3(O)[C@H]1C5,"inconclusive: 22.4 µM [inhibitor, single point]"
3,COc1cc(CNC(=O)CCCC/C=C/C(C)C)ccc1O,inactive
4,O=c1[nH]c(=O)n(Cc2ccccc2Cl)c(O)c1C=Nc1ccc(F)cc1,"inconclusive: 28.2 µM [inhibitor, single point]"
5,Cc1cc(OCC(=O)OC(C)C)c2c3c(c(=O)oc2c1)CCCC3,"inconclusive: 3.16 µM [inhibitor, single point]"
6,CCCCCSc1cc(OC)c(CCN(C)C)cc1OC,inactive
7,C/C=C1/CN2C3CC1C(CO)(C(=O)OC)C2Cc1c3n(C)c2ccccc12 (centres undefined),"inconclusive: 39.8 µM [inhibitor, single point]"
8,NNCc1cccc(O)c1,inactive and active: 22.4 µM
9,Cc1cc(/C=C2\C(=O)NC(=O)N(Cc3ccccc3)C2=O)c(C)n1-c1ccc(Cl)c(C(=O)O)c1,"inconclusive: 35.5 µM [inhibitor, single point]"
10,CCOc1ccccc1-n1c(O)c(C=Nc2ccc(N(CC)CC)cc2)c(=O)[nH]c1=O,inactive
11,CNc1ccccc1C(=O)O,"inconclusive: 28.2 µM [inhibitor, partial curve]"
12,COc1cc(/C=N/Nc2ccc(S(N)(=O)=O)cc2)cc(OC)c1OC,"inconclusive: 17.8 µM [inhibitor, partial curve]"
13,O=C(c1ccc2c(=O)n(Cc3ccc4c(c3)OCO4)c(=S)[nH]c2c1)N1CCC2(CC1)OCCO2,inactive
14,Cc1ccc2c(c1)CC1(CN2C)C(=O)NC(=O)N(c2cc(C)ccc2C)C1=O (centres undefined),inactive
15,CCOC(=O)c1cc(CC)sc1/N=C/c1c(O)[nH]c(=S)[nH]c1=O,inactive
16,COC(=O)[C@]1(C)CC[C@@]2(C)CC[C@@]3(C)C4=CC=C5C(=CC(=O)C(O)=C5C)[C@@]4(C)CC[C@@]3(C)C2C1 (some centres undefined),"inconclusive: 35.5 µM [inhibitor, single point]"
17,O=c1c2ccccc2nc(-c2ccco2)n1-c1nccs1,"inconclusive: 39.8 µM [inhibitor, single point]"
18,Clc1cccc(CN2CCCCC2c2cccnc2)c1 (centres undefined),"inconclusive: 39.8 µM [inhibitor, single point]"
19,CCC(=Nc1ccc(OC)cc1OC)c1c(O)n(C2CCCCC2)c(=O)[nH]c1=O,"inconclusive: 39.8 µM [inhibitor, single point]"
20,N=C(N)c1c(O)n(C2CCCCC2)c(=O)n(C2CCCCC2)c1=O,inactive
21,CN1C[C@@H](CO)C=C2c3cccc4[nH]cc(c34)CC21 (some centres undefined),"inconclusive: 28.2 µM [inhibitor, partial curve]"
22,Cc1cc(/C=C2\C(=O)NC(=O)N(Cc3ccccc3Cl)C2=O)c(C)n1-c1ccc(C(=O)O)cc1,inactive
23,CNc1cc(Cl)c2nonc2c1[N+](=O)[O-],inactive

row,SMILES,Potency
1,O=C(COc1ccccc1F)N1CCN(CCN2C(=O)c3cccc4cccc(c34)C2=O)CC1,"inconclusive: 17.8 µM [inhibitor, partial curve]"
2,CC(C)CC1C(C#N)=C(N)Oc2c1c(=O)oc1ccccc21 (centres undefined),"inconclusive: 31.6 µM [inhibitor, single point]"
3,CCCN(CCC)C(=O)Cc1c(-c2ccc(Cl)cc2)nc2c(Cl)cc(Cl)cn12,inactive
4,COC(=O)C1=Nc2ccccc2/C1=C\c1c(O)n(-c2cc(OC)ccc2OC)c(=O)[nH]c1=O,"inconclusive: 22.4 µM [inhibitor, partial curve]"
5,CC/C(=N\NC(=S)Nc1ccccc1)c1c(O)[nH]c(=O)[nH]c1=O,"inconclusive: 39.8 µM [inhibitor, single point]"
6,CC(C)CN(CC(C)C)c1ccc(C=C2C(=O)NC(=S)NC2=O)cc1[N+](=O)[O-],"inconclusive: 39.8 µM [inhibitor, single point]"
7,Cn1c(=O)c2c(nc(N/N=C/c3c(O)n(-c4ccccc4)c(=S)[nH]c3=O)n2C)n(C)c1=O,active: 25.1 µM
8,CC1(C)NCCN2C(=O)CSC21 (centres undefined),"inconclusive: 35.5 µM [inhibitor, single point]"
9,COc1ccccc1N=Cc1c(O)n(C)c(=O)n(C)c1=O,"inconclusive: 35.5 µM [inhibitor, single point]"
10,CN(C)C(=O)Oc1ccc(-c2cn3cc(C(F)(F)F)ccc3n2)cc1,"inconclusive: 20 µM [inhibitor, partial curve]"
11,Cn1c(O)c(C(=Nc2ccccc2)SCc2ccccc2Cl)c(=O)n(C)c1=O,"inconclusive: 25.1 µM [inhibitor, single point]"
12,CC(=O)c1ccc(OC(NC(=O)c2ccco2)C(Cl)(Cl)Cl)cc1 (centres undefined),inactive
13,CN1C(=O)C(=Cc2ccccc2Oc2ccc(Cl)c(F)c2)C(=O)N(C)C1=O,inactive
14,COc1ccc(C(=O)C2CCCN(C3CSCCSC3)C2)cc1OC (centres undefined),"inconclusive: 39.8 µM [inhibitor, single point]"
15,NCCc1c[nH]c2ccc(OCc3ccccc3)cc12,"inconclusive: 39.8 µM [inhibitor, single point]"
16,O=C(Nc1ccc(F)cc1)Oc1ccc[nH]c1=O,"inconclusive: 35.5 µM [inhibitor, single point]"
17,O=c1cccc2n1C[C@H]1C[C@@H]2CN2CCCC[C@@H]12,"inconclusive: 35.5 µM [inhibitor, single point]"
18,CCCNc1oc(-c2cccc3ccccc23)nc1C#N,"inconclusive: 14.1 µM [inhibitor, partial curve]"
19,CCCCCCn1c(O)c(C=NC2CCCCC2N)c(=O)[nH]c1=O (centres undefined),inactive
20,Nc1nc2n(n1)C(c1cccs1)CC(c1ccc(Br)cc1)N2 (centres undefined),"inconclusive: 39.8 µM [inhibitor, single point]"
21,CCOC(=O)C1C(C=C(C)C)C1(C)C (centres undefined),inactive
22,Cc1ccc(-n2c(O)c(C=Nc3ccc(S(N)(=O)=O)cc3)c(=O)[nH]c2=O)cc1,"inconclusive: 39.8 µM [inhibitor, single point]"
23,OC(COCc1ccc(Cl)cc1)CN1CC=C(c2ccccc2)CC1 (centres undefined),"inconclusive: 25.1 µM [inhibitor, single point]"
